# Measurements: PMC12136788
# The other results are listed elsewhere or left out.
# B1: chr2:92227778:92227779:-_ENSMUSG00000027223_ENSMUST00000050312|mus_hu|FALSE|FALSE (ssRNA)
# RNA: GGGAGUUCUACAGUCCGACGAUCUGUCUUCAGGGGUGAGGAUGAUCGAGACACCCGAUCCUGCCAACUGUGCUUUUUGCCCAGAGAAUUAUUAUUCAGUGUGUCCUGAGACCGCGGCACCUGCGGAAAGAGGUUGAGCGUGGUCAACAGAGGAUUGAGCAUCA
# B2: chr5:37680062:37680063:+_ENSMUSG00000029121_ENSMUST00000031004|mus_hu|mus_mus_mus_hu_False|78_98 (ssRNA)
# RNA: GGGAGUUCUACAGUCCGACGAUCUUUGGGUGUAGCUGGCACCUCGUACACAGGACCAUCGUACAUGCCCCUGGAAACCCCUUGCAAUCCAAAAACCUUAUUCCUGAUUUUGACGCGCUGGUACAGGUGCUCCGGGAACGCCUUCAACAGAGGAUUGAGCAUCA
# B3: chr12:66249844:66249845:-_ENSMUSG00000047534_ENSMUST00000052201|mus_hu|motif|central (ssRNA)
# RNA: GGGAGUUCUACAGUCCGACGAUCGGGAUGCCUAUUUGUCUUAUCAGAUCCUACUGCCUCAGUAAUUGGAAACUCUUUCCGGACACCAGACUUCUGAAGAGUUUCUUUGACGGAAGGUCUAGCUUUCUUUUGUUUGAUAUAAAACAACAGAGGAUUGAGCAUCA
# B4: chr7:141450121:141450122:+_ENSG00000106028_ENST00000265304|hu_mus|hu_hu_hu_mus_True|18_18 (ssRNA)
# RNA: GGGAGUUCUACAGUCCGACGAUCUCAUCCGUUCUAUGCCUUUUCUUUUGUCUGGUCACUCAGAAAUAUAAUGUUAUCAGCUAUGAUUGUUGUUGCUUGCCGCCUCACAUUGUUUUUAUCCAUGUAUUCGCCAUAGUCCACUUUCAACAGAGGAUUGAGCAUCA
# B5: chr1:151007788:151007789:+_ENSG00000143363_ENST00000271620|hu_mus|FALSE|FALSE (ssRNA)
# RNA: GGGAGUUCUACAGUCCGACGAUCCUCGCUGCUGGGUCACCAUUACAACCCUGUACAUGCUACAUGAGGCUAAGUUCCUUGGUACAAUCACACAUAAACACGAAACAAUCCAGUGACCCAGAGCGCGAACGCUCCCAGGGAGGACAACAGAGGAUUGAGCAUCA
# B6: chr4:76721835:76721836:+_ENSG00000138768_ENST00000264904|hu_mus|hu_hu_hu_mus_True|28_68 (ssRNA)
# RNA: GGGAGUUCUACAGUCCGACGAUCGUUUGGCUGGGGUUUCUGAGACGCUCUGGAAUAUAACUCAUGUUGCUAAUAAAAUCCUAGUUUCUCUAUGAAAUUCUCUUUGCAAUCCUCUUCCUCUAUUAGUUGCUUUAGUUUCUCUUUCAACAGAGGAUUGAGCAUCA
# B7: chr7:7679991:7679992:-_ENSG00000106399_ENST00000396682|hu_hu|hu_hu_hu_mus_False|18_78 (ssRNA)
# RNA: GGGAGUUCUACAGUCCGACGAUCUGGGAUGAAUCUUUUCCAGCUUCCCCACGAAGCAGACAGGCUUGUCGAUAUACUGUGGUAACAUGCUGGCGUUGACGCGCGCUUUGGGGAGCUCCAUCAUGUCCUCCAUGAUUCUGCCGCCAACAGAGGAUUGAGCAUCA
# B8: chr11:72497679:72497680:+_ENSMUSG00000020794_ENSMUST00000021148|mus_mus|FALSE|FALSE (ssRNA)
# RNA: GGGAGUUCUACAGUCCGACGAUCUAUUGCUACAUCCAAUCCAAGAGAUGGGUGAAUCAUAGUACAAAAAGGACAAAGCACCUAGUGAUGACCCCUCCUCUGAAGUCAUCGUGAAAAACUCAAGUAAUUUACUAGUAUUUCAGUCAACAGAGGAUUGAGCAUCA
# B9: chr16:94664741:94664742:+_ENSMUSG00000040785_ENSMUST00000117648|mus_hu|mus_mus_mus_hu_False|68_88 (ssRNA)
# RNA: GGGAGUUCUACAGUCCGACGAUCUGGUACUGAUCUUGGUAGCUGAUACUCAGAAGAAAGGCUGGCCAAAGGUGUGUAUAUGCUGGUGUACUGGGGCAAACCUGGUAACACGUUUAUGUAUGCUGGCGGUGUCUGGGUGAUAUCCAACAGAGGAUUGAGCAUCA
# B10: chr7:151048522:151048523:+_ENSG00000013374_ENST00000566856|hu_mus|hu_hu_hu_mus_True|18_98 (ssRNA)
# RNA: GGGAGUUCUACAGUCCGACGAUCCUGUUUCUUAUUUAUGACAAUUUUGAUGUAAUUUUCUUGAAAUCCGAAAGUUUCAGCUAUUUGACACCUCAGGUCUCUACCAGUGACAUGCAAUCGGGUCUCCAACAAGCUUUUCUUAUCCAACAGAGGAUUGAGCAUCA
# B11: chr12:16947260:16947261:+_ENSMUSG00000020580_ENSMUST00000020904|mus_mus|FALSE|FALSE (ssRNA)
# RNA: GGGAGUUCUACAGUCCGACGAUCAAUAUCUCUUUCUUCCCAGAAAAAAGCAGAAUCUGAUCUUUUUAUCAUUUCAAAUUUACUAAGAAGCUUCAUUGCAUAAACCUUCUGUGAUGCCUUAUGACGAACCAACUGAACUUCACCCAACAGAGGAUUGAGCAUCA
# B12: chr1:205685097:205685098:-_ENSG00000069275_ENST00000367142|hu_hu|FALSE|FALSE (ssRNA)
# RNA: GGGAGUUCUACAGUCCGACGAUCUAUCAAGCCUGACUAUUGAGCACCUGUAUCCAGUUGAGUCACCACCACUGUCCUCCUAUUUGCAUGCAUGAUUUGAGGGGAAGACUAGAGUGUUUUAAAUCAUCAAUAAAAAGUGGAGAACAACAGAGGAUUGAGCAUCA
# B13: chr14:20710596:20710597:-_ENSMUSG00000043004_ENSMUST00000160013|mus_mus|FALSE|FALSE (ssRNA)
# RNA: GGGAGUUCUACAGUCCGACGAUCAUCCUGUCGAUGUUGGCUUCCAUCUUCAGCUGUUCUACCAGCUUCCUGGCUUGUGCUAUGCUGGCGGUGUUGUUGCUGGCCAUUGGAGCGUUGGAUGGGGUCUUCAGAGACUCUGGUCAGCAACAGAGGAUUGAGCAUCA
# B14: 14287163_14290935_615_CDS_ENSG00000038382_ENST00000344204|human|control|control (ssRNA)
# RNA: GGGAGUUCUACAGUCCGACGAUCUCUGAUUUCAAUCCAUUCUUCGUGGUUGUAUUCCAGGCAGCCAUCAAACUCAGGAGUUAGCUGAGAAGGAUCAACUACUUUGGUAAGGCCUUCUAAAGAGACCAUAUUUGUCUCAAAUUCCAACAGAGGAUUGAGCAUCA
# B15: chr3:9412954:9412955:+_ENSG00000134077_ENST00000452837|hu_mus|hu_hu_hu_mus_False|18_28 (ssRNA)
# RNA: GGGAGUUCUACAGUCCGACGAUCGGUUGAUAUCUCUUCUUUGAUGGCUGGAUUUUCAUAAUAGUCCAAGAUAUGUGAAUCUGAAGUGCUGCUGGCAUGCUUUUUCUUAACAUUUCUCUGAUCGAUUUUGUCUCCUUGUCCACACAACAGAGGAUUGAGCAUCA
# B16: chr12:110720550:110720551:+_ENSG00000174437_ENST00000539276|hu_mus|FALSE|FALSE (ssRNA)
# RNA: GGGAGUUCUACAGUCCGACGAUCUUCCUCGAACCAAGCCAAAACGAAAGAUAUACAUGCUGCCAGCAGUAAAAUUCUAACUAGUAAGUCUUCAAACUGCUCAAUCACAAGUUCCAGCAAGGUUUUUCCUUCUUCAGCCGGCAACAACAGAGGAUUGAGCAUCA
# B17: 57393166_57394276_872_CDS_ENSMUSG00000032306_ENSMUST00000034856|mouse|control|control (ssRNA)
# RNA: GGGAGUUCUACAGUCCGACGAUCAGCACGCACGGUAUUGUCCGAACAUGCCAUGCAUUCCACGCAGUCUCCCUUCAGGUAGGCAUGGGGUACGUUGGCAUCCAGAAACAUGGCUUCCCCAGGCUUCAAGGUGAGCAGGUUCAGCAACAGAGGAUUGAGCAUCA
# B18: chr19:29884105:29884106:-_ENSMUSG00000074909_ENSMUST00000099525|mus_mus|motif|central (ssRNA)
# RNA: GGGAGUUCUACAGUCCGACGAUCCAGAGAGAAAUGGUAUAUCUCUCAUUUGUAAUGAAUCCACUCACGACACGUUGUAGCGGCUUUUAUGAUAGAUGGUAUUAAACUGCUUCAAGCAAAACUGAGUAACUCAUGUAAAGCUUCCAACAGAGGAUUGAGCAUCA
# B19: chr2:78712580:78712581:+_ENSMUSG00000027011_ENSMUST00000028398|mus_mus|motif|central (ssRNA)
# RNA: GGGAGUUCUACAGUCCGACGAUCGUUAGGAGGAGGAUCAAGGGUUAUCUCUGCUAGCUCCUUCUGAAUUCUUUUAGCACGGGUGGAUAACUUAGCAGUCGUUUUGCUAGAGAGUUUGGUGUUUUUCUUCUGCUGGGUGGCAGACAACAGAGGAUUGAGCAUCA
# B20: 53854897_53858558_661_CDS_ENSG00000197111_ENST00000546463|human|control|control (ssRNA)
# RNA: GGGAGUUCUACAGUCCGACGAUCUGUGCUGUACCUGUCCUGACCACCUGCAAAGAUGACCGGAGAGCUGGACGGCUUGGGCCGGUACGGGAUGGUCACGCCCUUCGGGGGGGACUCCAACAUGACCACGCAGAUCUGUUUGACCAACAGAGGAUUGAGCAUCA
# B21: chr11:87793471:87793472:-_ENSMUSG00000020483_ENSMUST00000020775|mus_mus|mus_mus_mus_hu_False|48_98 (ssRNA)
# RNA: GGGAGUUCUACAGUCCGACGAUCUGGACUUGAAAAUAAAAAAAAUAGCUGGAUCCCCCACCCCCCCACAUUGUCAACCCUACACGAGUUCUGAAUGGGCGACUCAUGAAAAUCAGCAGCUCAAACGGCAAUGACCACCCCACCCAACAGAGGAUUGAGCAUCA
# B22: chr2:217001886:217001887:+_ENSG00000079246_ENST00000392132|hu_mus|FALSE|FALSE (ssRNA)
# RNA: GGGAGUUCUACAGUCCGACGAUCGUAAGGGAAGGCUACACCAACUUGAGGAUUAGAUCUUUUGUCAUAAGCAUAUCGGACGAUGGCGACCAUGUUUAACUCAUCCAAAGCAUGAACGAGAGAGGAAAGGGCAACAGCUGCCGCCAACAGAGGAUUGAGCAUCA
# Target: T1, UNK ZnF1-3 (human, UniProt Q9C0B0 31-174)
# T1 sequence: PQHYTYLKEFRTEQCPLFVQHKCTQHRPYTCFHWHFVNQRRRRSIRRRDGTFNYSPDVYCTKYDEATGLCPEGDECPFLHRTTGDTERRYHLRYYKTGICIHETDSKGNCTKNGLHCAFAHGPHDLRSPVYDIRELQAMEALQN
# Assay: nsRBNS (natural sequence RNA bind-n-seq); RBNS binding buffer (assumed for nsRBNS): 25 mM Tris pH 7.5, 150 mM KCl, 3 mM MgCl2, 0.01% Triton X-100, 500 ug/ml BSA, 20 U/ml SUPERase-In, 4 C; UNK is unkempt and MSI1 is Musashi-1; names of the RNAs are library labels; protein concentration not given here; high values mean tight binding
row,Binder,binding signal [enrichment R]
1,B1,1.56
2,B2,0.817
3,B3,0.769
4,B4,0.367
5,B5,0.654
6,B6,0.605
7,B7,0.591
8,B8,0.891
9,B9,1.05
10,B10,0.649
11,B11,0.876
12,B12,2.13
13,B13,0.408
14,B14,0.748
15,B15,0.419
16,B16,1.08
17,B17,1.27
18,B18,0.742
19,B19,0.842
20,B20,1.16
21,B21,2.95
22,B22,1.59
